The source of these data is PubChem BioAssay AID485344 (National Center for Advancing Translational Sciences (NCATS), 2010).

In all, about 340,000 compounds went through this assay and about 6,900 (2%) were called active. Rule as the data show it: active = inhibition above about 30%; inactive = below that, where a call was filed. The list shows a part of the results, in another mix than the full data. The source gives no active or inactive call for entries shown without one.

Chain of UniProt P14416 (P14416 whole entry, looked up): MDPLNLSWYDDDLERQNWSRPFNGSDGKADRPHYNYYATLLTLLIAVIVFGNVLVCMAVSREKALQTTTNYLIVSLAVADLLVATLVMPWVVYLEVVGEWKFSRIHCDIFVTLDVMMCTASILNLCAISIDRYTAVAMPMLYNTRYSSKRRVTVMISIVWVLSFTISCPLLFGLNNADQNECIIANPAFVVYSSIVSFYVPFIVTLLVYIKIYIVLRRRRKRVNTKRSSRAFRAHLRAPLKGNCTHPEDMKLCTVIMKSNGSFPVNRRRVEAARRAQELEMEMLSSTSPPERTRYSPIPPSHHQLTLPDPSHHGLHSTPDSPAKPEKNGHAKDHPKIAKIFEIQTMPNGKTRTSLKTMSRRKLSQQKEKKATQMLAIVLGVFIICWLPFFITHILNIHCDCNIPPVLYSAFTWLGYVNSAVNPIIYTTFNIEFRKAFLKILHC

This test concerns the target D(2) dopamine receptor (Homo sapiens) (UniProt P14416). The test is described as follows: HTS Assay for Allosteric Antagonists of the Human D2 Dopamine Receptor: Primary Screen for Antagonists. Also: 0% is about no effect. Conditions: HEK293 TREx D2 cells, calcium flux, dopamine EC80; at 10 µM; stronger effect = higher value. The gist of the method:
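Tetracycline-induced HEK293 T-REx cells expressing D2 force-coupled to calcium signalling were dye-loaded, exposed to compound for 180 s, then challenged with an EC80 of dopamine; calcium flux was followed kinetically for a further 180 s.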
For orientation: A change in cytosolic calcium serves as a functional read-out for many receptors and channels.
A word on the inhibition: it is the change of the read-out against control, counted positive when it falls. For the compound `CCCS(=O)(=O)N1CCCC(C(=O)NCCCOC)C1` (stereo unspecified), the inhibition came out at 10.9%.
Regarding `Cc1ccc(CCNC(=O)c2cn(C)c3ccc(S(=O)(=O)N4CCCCC4)cc3c2=O)cc1`, the inhibition is 8.29%.
For the compound `Cc1ccc2[nH]c(CSc3nnc(NC(=O)c4ccccc4C)s3)cc(=O)c2c1`, the inhibition amounted to 13%.
The same measure for `O=C(O)c1csc(-n2nc(-c3ccccc3)cc2C(F)(F)F)n1`: active: 47.9%.
In the case of `CCC(=O)NCC(c1ccc2c(c1)OCO2)N1CCN(c2ccccc2)CC1` (stereo unspecified) it was 25.5%.
The same measure for `COc1ccc(N2CCN(C(=O)CCc3c(C)nc4cc(-c5ccc(Cl)cc5)nn4c3C)CC2)cc1`: -14.4%.
Consider `Cc1nc2ccccc2c(=O)n1-c1ccc(NC(=O)c2ccc([N+](=O)[O-])cc2)cc1`, for which the inhibition was -25.1%.
In the case of `COc1ccc(-c2[nH]nc3nc(-c4cc(OC)c(OC)c(OC)c4)cc(C(=O)O)c23)cc1` it was -4.59%; in that of `CCOc1ccc(NCc2cccn2-c2nnc(N3CCC(C(=O)NCCc4ccc(OC)c(OC)c4)CC3)s2)cc1`, -21.1%; in that of `CC1=C(c2ccc(C)c(C)c2)S(=O)(=O)N=C1N1CCC(C(=O)NCCc2ccco2)CC1`, -3.82%.
In the case of `CS(=O)(=O)N1CCc2cc(C(=O)NCCc3ccccc3)ccc21`, the inhibition is -6.15%.
The same measure for `Cc1ccc(-c2cc(C(=O)N3CCN(S(=O)(=O)c4ccc(Br)cc4)CC3)[nH]n2)cc1C`: 2.7%; for `COC(=O)CS(=O)(=O)c1nc2ccccc2nc1N1CCCCC1`: -23.6%; for `COc1ccccc1N1CCN(C(=O)c2cc3c(-c4ccc(Cl)cc4)nn(C)c3s2)CC1`: active: 31%.
Regarding `CC(C)CCNC(=O)Nc1ccc2c(c1)N(C)C(=O)c1ccccc1S2`, the inhibition is 20.1%.
In the case of `COCCCNc1ncnc2onc(-c3ccc(F)cc3)c12` it was -23.4%; in that of `COCCCNC(=O)CN1C(=O)COc2ccc(S(=O)(=O)N3CCCC3)cc21`, 8.7%; in that of `Cc1n[nH]c(C)c1S(=O)(=O)N(CC(=O)NC(C)c1ccccc1)c1ccc(C(C)C)cc1` (stereo unspecified), 3.13%.
As to `Cc1ccc(NC(=O)Cn2c(=O)c3cc(Cl)ccc3n3nncc23)cc1`, the inhibition is -8.25%.
In the case of `COc1ccc(C(=O)NCCn2cc(SCC(=O)NCCc3ccc(OC)c(OC)c3)c3ccccc32)cc1` it was -0.384%; in that of `COc1cccc(NC(=O)Cn2cnc3c(nc4n3CCCCC4)c2=O)c1`, 6.61%.
Consider `CCOc1ccc(CNC(=O)CCS(=O)(=O)c2cc3c(cc2Cl)NC(=O)CO3)cc1OC`, for which the inhibition is -0.958%.
Turning to `CCOC(=O)c1ccccc1NC(=O)Nc1cc2c(cc1N1CCCCC1)n(C)c(=O)n2C`, the inhibition was 13.1%.
The same measure for `O=C(CSc1ncccn1)NCc1ccc(Cl)cc1`: active: 35.8%; for `CCOc1ccc(Oc2nc(NCC(C)C)nc(NC(C)(C)C)n2)nn1`: 13.9%.
The same measure for `Cc1ccc(S(=O)(=O)n2ccc3cccnc32)cc1`: active: 37.3%.
